# According to publication PMC9911399, “Two distinct binding modes provide the RNA-binding protein RbFox with extraordinary sequence specificity”:
# Changes are numbered by the printed parent chain; changes in the protein carry UniProt numbers. The list shows a part of the results.
# T1: RBFOX1 RRM (Homo sapiens, UniProt Q9NWB1 109-208)
# T1 sequence: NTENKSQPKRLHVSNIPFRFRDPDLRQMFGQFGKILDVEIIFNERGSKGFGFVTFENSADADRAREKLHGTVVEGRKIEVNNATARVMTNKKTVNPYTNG
# B1: GGCCCUA (DNA:RNA)
# RNA: GGGAGACCGGAAUUCAGAUUGUCCGGCCCUAUUAAAUCCCGUCGUAGCCACCA
# DNA 1: CAATCTGAATTCCGGTCTCCC
# DNA 2: TGGTGGCTACGACGGGATT
# B2: ACCCCCG (DNA:RNA)
# RNA: B1 RNA with G25A, G26C, U30C, A31G
# DNA 1: CAATCTGAATTCCGGTCTCCC
# DNA 2: TGGTGGCTACGACGGGATT
# B3: CAGACUC (DNA:RNA)
# RNA: B1 RNA with G25C, G26A, C27G, C28A, A31C
# DNA 1: CAATCTGAATTCCGGTCTCCC
# DNA 2: TGGTGGCTACGACGGGATT
# B4: CAUGAGG (DNA:RNA)
# RNA: GGGAGACCGGAAUUCAGAUUGUCCCAUGAGGUUAAAUCCCGUCGUAGCCACCA
# DNA 1: CAATCTGAATTCCGGTCTCCC
# DNA 2: TGGTGGCTACGACGGGATT
# B5: CGCCCAA (DNA:RNA)
# RNA: B1 RNA with G25C, U30A
# DNA 1: CAATCTGAATTCCGGTCTCCC
# DNA 2: TGGTGGCTACGACGGGATT
# B6: AUGAAGA (DNA:RNA)
# RNA: B4 RNA with C25A, A26U, U27G, G28A, G31A
# DNA 1: CAATCTGAATTCCGGTCTCCC
# DNA 2: TGGTGGCTACGACGGGATT
# B7: GAACCGA (DNA:RNA)
# RNA: B1 RNA with G26A, C27A, U30G
# DNA 1: CAATCTGAATTCCGGTCTCCC
# DNA 2: TGGTGGCTACGACGGGATT
# B8: CUGUUAU (DNA:RNA)
# RNA: B4 RNA with A26U, U27G, G28U, A29U, G30A, G31U
# DNA 1: CAATCTGAATTCCGGTCTCCC
# DNA 2: TGGTGGCTACGACGGGATT
# B9: GUGCAAA (DNA:RNA)
# RNA: B1 RNA with G26U, C27G, C29A, U30A
# DNA 1: CAATCTGAATTCCGGTCTCCC
# DNA 2: TGGTGGCTACGACGGGATT
# B10: GUCCUGU (DNA:RNA)
# RNA: B1 RNA with G26U, C29U, U30G, A31U
# DNA 1: CAATCTGAATTCCGGTCTCCC
# DNA 2: TGGTGGCTACGACGGGATT
# B11: CUGGACG (DNA:RNA)
# RNA: B4 RNA with A26U, U27G, G30C
# DNA 1: CAATCTGAATTCCGGTCTCCC
# DNA 2: TGGTGGCTACGACGGGATT
# B12: GGUGCUG (DNA:RNA)
# RNA: B1 RNA with C27U, C28G, A31G
# DNA 1: CAATCTGAATTCCGGTCTCCC
# DNA 2: TGGTGGCTACGACGGGATT
# B13: UAGAGGU (DNA:RNA)
# RNA: B4 RNA with C25U, U27G, G28A, A29G, G31U
# DNA 1: CAATCTGAATTCCGGTCTCCC
# DNA 2: TGGTGGCTACGACGGGATT
# B14: CCGCGAU (DNA:RNA)
# RNA: B4 RNA with A26C, U27G, G28C, A29G, G30A, G31U
# DNA 1: CAATCTGAATTCCGGTCTCCC
# DNA 2: TGGTGGCTACGACGGGATT
# B15: UUUUCUA (DNA:RNA)
# RNA: B1 RNA with G25U, G26U, C27U, C28U
# DNA 1: CAATCTGAATTCCGGTCTCCC
# DNA 2: TGGTGGCTACGACGGGATT
# B16: GGUGUCG (DNA:RNA)
# RNA: B4 RNA with C25G, A26G, A29U, G30C
# DNA 1: CAATCTGAATTCCGGTCTCCC
# DNA 2: TGGTGGCTACGACGGGATT
# B17: GGUAUGG (DNA:RNA)
# RNA: B4 RNA with C25G, A26G, G28A, A29U
# DNA 1: CAATCTGAATTCCGGTCTCCC
# DNA 2: TGGTGGCTACGACGGGATT
# B18: UGGAUAA (DNA:RNA)
# RNA: B1 RNA with G25U, C27G, C28A, C29U, U30A
# DNA 1: CAATCTGAATTCCGGTCTCCC
# DNA 2: TGGTGGCTACGACGGGATT
# B19: UUGCUAA (DNA:RNA)
# RNA: B1 RNA with G25U, G26U, C27G, C29U, U30A
# DNA 1: CAATCTGAATTCCGGTCTCCC
# DNA 2: TGGTGGCTACGACGGGATT
# B20: AGUGGGC (DNA:RNA)
# RNA: B4 RNA with C25A, A26G, A29G, G31C
# DNA 1: CAATCTGAATTCCGGTCTCCC
# DNA 2: TGGTGGCTACGACGGGATT
# B21: CGUAGCA (DNA:RNA)
# RNA: B4 RNA with A26G, G28A, A29G, G30C, G31A
# DNA 1: CAATCTGAATTCCGGTCTCCC
# DNA 2: TGGTGGCTACGACGGGATT
# B22: CAACUCU (DNA:RNA)
# RNA: B4 RNA with U27A, G28C, A29U, G30C, G31U
# DNA 1: CAATCTGAATTCCGGTCTCCC
# DNA 2: TGGTGGCTACGACGGGATT
# B23: AUGAAUC (DNA:RNA)
# RNA: B4 RNA with C25A, A26U, U27G, G28A, G30U, G31C
# DNA 1: CAATCTGAATTCCGGTCTCCC
# DNA 2: TGGTGGCTACGACGGGATT
# B24: AGCGUAA (DNA:RNA)
# RNA: B1 RNA with G25A, C28G, C29U, U30A
# DNA 1: CAATCTGAATTCCGGTCTCCC
# DNA 2: TGGTGGCTACGACGGGATT
# B25: GCUAGUG (DNA:RNA)
# RNA: B4 RNA with C25G, A26C, G28A, A29G, G30U
# DNA 1: CAATCTGAATTCCGGTCTCCC
# DNA 2: TGGTGGCTACGACGGGATT
# B26: UUCGAGC (DNA:RNA)
# RNA: B4 RNA with C25U, A26U, U27C, G31C
# DNA 1: CAATCTGAATTCCGGTCTCCC
# DNA 2: TGGTGGCTACGACGGGATT
# B27: GGUUCAG (DNA:RNA)
# RNA: B1 RNA with C27U, C28U, U30A, A31G
# DNA 1: CAATCTGAATTCCGGTCTCCC
# DNA 2: TGGTGGCTACGACGGGATT
# B28: GCCUAGG (DNA:RNA)
# RNA: B4 RNA with C25G, A26C, U27C, G28U
# DNA 1: CAATCTGAATTCCGGTCTCCC
# DNA 2: TGGTGGCTACGACGGGATT
# B29: UAAGAGU (DNA:RNA)
# RNA: B4 RNA with C25U, U27A, G31U
# DNA 1: CAATCTGAATTCCGGTCTCCC
# DNA 2: TGGTGGCTACGACGGGATT
# B30: GAGCUUG (DNA:RNA)
# RNA: B1 RNA with G26A, C27G, C29U, A31G
# DNA 1: CAATCTGAATTCCGGTCTCCC
# DNA 2: TGGTGGCTACGACGGGATT
# B31: AGAUCCG (DNA:RNA)
# RNA: B1 RNA with G25A, C27A, C28U, U30C, A31G
# DNA 1: CAATCTGAATTCCGGTCTCCC
# DNA 2: TGGTGGCTACGACGGGATT
# Target: T1, RBFOX1 RRM
# Test: EMSA; HiTS-Eq, 1 nM pool, 10 min; buffer printed only for the single-RNA assays: 10 mM Tris pH 7.5, 150 mM NaCl, 3.4 mM EDTA, 0.001% NP-40, 30 C
# Conditions: tags: His6 N-terminal (pET28a); label: 5' 32P
# How it was run: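 These values rest on relative association constants, computed from read-count changes of each RNA species versus the control reaction and normalised to the cognate motif. Reads came from free RNA recovered by 8% native PAGE after purified RbFox RRM (wild type or mutant) at increasing concentrations was equilibrated for 10 min in 50 µL with 1 nM of a 5′-radiolabelled pool with 7 randomized nucleotides and DNA-annealed flanks.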
row,Binder,binding signal
1,B1,0.013 KA relative to UGCAUGU
2,B2,0.00291 KA relative to UGCAUGU
3,B3,0.00715 KA relative to UGCAUGU
4,B4,0.00885 KA relative to UGCAUGU
5,B5,0.00259 KA relative to UGCAUGU
6,B6,0.00985 KA relative to UGCAUGU
7,B7,0.00508 KA relative to UGCAUGU
8,B8,0.0116 KA relative to UGCAUGU
9,B9,0.0108 KA relative to UGCAUGU
10,B10,0.0155 KA relative to UGCAUGU
11,B11,0.0124 KA relative to UGCAUGU
12,B12,0.0153 KA relative to UGCAUGU
13,B13,0.00935 KA relative to UGCAUGU
14,B14,0.006 KA relative to UGCAUGU
15,B15,0.0102 KA relative to UGCAUGU
16,B16,0.0153 KA relative to UGCAUGU

row,Binder,binding signal
1,B17,0.00925 KA relative to UGCAUGU
2,B18,0.0172 KA relative to UGCAUGU
3,B19,0.00861 KA relative to UGCAUGU
4,B20,0.00917 KA relative to UGCAUGU
5,B21,0.016 KA relative to UGCAUGU
6,B22,0.00316 KA relative to UGCAUGU
7,B23,0.00485 KA relative to UGCAUGU
8,B24,0.00399 KA relative to UGCAUGU
9,B25,0.0248 KA relative to UGCAUGU
10,B26,0.0185 KA relative to UGCAUGU
11,B27,0.00719 KA relative to UGCAUGU
12,B28,0.0123 KA relative to UGCAUGU
13,B29,0.0123 KA relative to UGCAUGU
14,B30,0.0295 KA relative to UGCAUGU
15,B31,0.00786 KA relative to UGCAUGU
